# Measurements as given in PubChem BioAssay AID686978 (National Center for Advancing Translational Sciences (NCATS), 2013).
# “And” between values parts separate entries of the source, which are not always exact repeats. Equal values may be shown once. The campaign covered roughly 420,000 compounds. About 64,000 (15%) were called active. The shares of active, inactive and inconclusive entries below differ from those in the screen. Calls follow the shape of the dose curve; as a rule, active = well fitted inhibition curve with a large enough effect; inconclusive = small, poorly fitted or top-dose-only effect; inactive = flat fitted curve, though single readings scatter. Potencies of inconclusive entries are doubtful fits and often do not repeat.
# Experiment: qHTS for Inhibitors of human tyrosyl-DNA phosphodiesterase 1 (TDP1): qHTS in cells in absence of CPT; also: nearly all actives have a fitted effect of over 55% in size
# Details: DT40 Tdp1-/- hTDP1 cells, no CPT, ATP luminescence, 48 h; activity change, negative = growth inhibition: at 46.2 µM (top of the series) unless noted
# In short: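 Growth kinetics read by CellTiter-Glo luminescence after ≥48 hr at 37 °C. Cells: DT40 Tdp1-/- stably carrying human TDP1, 400 per well, compound exposure in the absence of CPT (DMSO vehicle).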
# % is scaled to controls: 0 for no effect and ±100 for the full control effect; potency is read from the fitted curve at half-maximal effect; tags tell the direction and shape of the fitted curve.
Structure (SMILES),Potency,"activity change, negative = growth inhibition"
COc1ccccc1N1CCN(C(=O)CSc2nc3ccccc3nc2Cc2ccc(C)cc2)CC1,"inconclusive: 29.1 µM [inhibitor, single point]",
CC1CCN(c2nc3c(cc2C#N)COC(C)(C)C3)CC1,"inconclusive: 18.4 µM [inhibitor, single point]",
Cc1ccc2nc(-c3ccc(NC(=O)CCS(=O)(=O)c4ccccc4)cc3)sc2c1,active: 25.9 µM,
CC(C)[C@H](O)CC[C@@H](C)C1CC[C@H]2C3CC=C4C[C@@H](O)CC[C@]4(C)C3CC[C@]12C (stereo partly specified),"inactive and inconclusive: 2.91 µM [inhibitor, partial curve]",
O=P(C(=NCCO)NO)(N1CCOCC1)N1CCOCC1,inactive,
CC(C)NC(=S)N1CCN(C(c2ccccc2)c2ccccc2)CC1,"inconclusive: 16.4 µM [inhibitor, single point]",
Cc1nn(-c2cc(C(F)(F)F)ccn2)c(=O)o1,inactive,
COc1ccc(CNc2nc(NCc3ccc(OC)cc3)n(S(C)(=O)=O)n2)cc1,"inconclusive: 7.31 µM [inhibitor, partial curve, poor fit]",
CCN(CCCNC(=O)c1nn(-c2ccc(OC)c(Cl)c2)c(=O)c2c1c1ccccc1n2C)c1ccccc1,inactive,
COc1ccc(Br)cc1CN(C)C(=O)c1cc(Cl)c2c(c1)OCCO2,active: 20.6 µM,
CCc1ccc(C(=O)N/N=C/c2cccc3ccccc23)nc1,"inconclusive: 10.3 µM [inhibitor, partial curve, poor fit]",
O=C(NC1CCCCC1)N1CCC(c2nc(-c3ccc(S(=O)(=O)N4CCCC4)cc3)no2)CC1,active: 9.2 µM,
CCC(=O)Nc1nonc1-c1nc2ccccc2n1CCC(C)C,active: 9.2 µM,
O=c1cc(CN2CCN(Cc3ccccc3)CC2)c2cc(Cl)ccc2o1,inactive,
O=c1[nH][nH]c(=O)c2cc(N3CCCC3)ccc12,inactive,
O=C(CSc1cn[nH]n1)Nc1nc2ccccc2s1,inactive,
O=C(O)c1ccc2c3c(ncnc13)-c1ccccc1C2=O,active: 23.1 µM,
CC(=O)c1cccc(Nc2nc(-c3ccccc3)nc3ccccc23)c1,"inconclusive: 18.4 µM [inhibitor, single point]",
CC(=O)Nc1cccc(NC(=O)C(=O)Nc2ccc3c(c2)N(C(=O)C2CC2)CCC3)c1,"inconclusive: 18.4 µM [inhibitor, single point]",
C[C@H](NC(=O)c1nc[nH]c1C(=O)N1CCNCC1)C(=O)OCc1ccccc1,inactive,
COc1ccccc1NC(=O)CN1CCN(S(=O)(=O)c2ccc(Br)cc2)CC1,inactive,
COc1ccccc1/C=C/c1onc(C)c1S(=O)(=O)N1CCC(C(=O)NC(C)C)CC1,inactive,
CC1CCN(S(=O)(=O)c2ccc(C(=O)N3CCCC(C(F)(F)F)C3)cc2)CC1 (stereo unspecified),"inconclusive: 9.2 µM [inhibitor, partial curve]",
CC1CCN(C(=O)Cn2c(SCC(=O)Nc3ccc(F)cc3)nc3ccccc32)CC1,"inconclusive: 14.6 µM [inhibitor, partial curve]",

Structure (SMILES),Potency,"activity change, negative = growth inhibition"
O=C(CCCn1c(=O)c2sccc2n(CC(=O)NCc2ccco2)c1=O)NCc1ccco1,inactive,
Cc1ccc(-c2csc(C(C#N)=C3CCCC3)n2)cc1,"inconclusive: 29.1 µM [inhibitor, single point]",
COC(=O)C1=C(Nc2ccc(C)cc2)C=C(C)C(C(=O)OC)C1c1cccc(OC)c1 (stereo unspecified),"inconclusive: 29.1 µM [inhibitor, single point]",
COc1ccc(CCNC(=O)CN2C(=O)C(=O)N(C3CCCC3)C2=O)cc1OC,inactive,
CC(C)c1ccc(OCC(=O)NCC(c2ccc(Cl)cc2)N2CCOCC2)cc1 (stereo unspecified),active: 18.4 µM,
COc1ccccc1Cn1c(C)c(C(=O)NCc2ccc(C#N)cc2)sc1=O,"inconclusive: 16.4 µM [inhibitor, single point]",
O=[N+]([O-])c1c(NCCCO)cc(N2CCN(Cc3ccc4c(c3)OCO4)CC2)c2nonc12,active: 5.8 µM,
CCN1CCN(c2ccc(S(=O)(=O)N3CCCCC3)cc2NC(=O)/C=C/c2ccc(OC(F)F)cc2)CC1,"inconclusive: 18.4 µM [inhibitor, single point]",
Cc1cc(Cl)c(S(=O)(=O)NC2CCCC2)cc1OCC(N)=O,inactive,
CCCn1c(NC(=S)Nc2ccccc2)nc2ccccc21,"inconclusive: 29.1 µM [inhibitor, single point]",
C/C(CCC(C)C)=N\Nc1ccc(S(N)(=O)=O)cc1[N+](=O)[O-],"inconclusive: 23.1 µM [inhibitor, single point]",
O=C1NC[C@H](CCCCN2CCN(CCC3CCCCC3)C(=O)C2=O)N(CCc2ccc(O)cc2)C1=O,inactive,
Cc1ccccc1N1CCN(C2CCCN(C(=O)c3cn4c(C)cccc4n3)C2)CC1 (stereo unspecified),active: 14.6 µM,
CCCCCOC(=O)c1c(N)n(CCOC)c2nc3ccccc3nc12,"inconclusive: 20.6 µM [inhibitor, single point]",
COC(=O)C1=CN(Cc2ccc(OC)cc2)C=C(C(=O)OC)C1c1cc(OC)c(OC)c(OC)c1,"inconclusive: 16.4 µM [inhibitor, single point]",
CCN(Cc1ccccc1)C(=O)Cn1c(=O)n(-c2cccc(C)c2)c(=O)c2c1c1cc(OC)ccc1n2C,active: 16.4 µM,
CCOc1ccccc1N1CCN(C(=O)CCNS(=O)(=O)c2ccccc2F)CC1,"inconclusive: 29.1 µM [inhibitor, single point]",
COc1cccc2sc(Nc3nc4ccc(NC(C)=O)cc4s3)nc12,"inconclusive: 25.9 µM [inhibitor, single point]",
CC1=C(C(=O)NC(C)c2ccc3c(c2)OCCO3)C2(CCC(C)CC2)OC1=O (stereo unspecified),"inconclusive: 18.4 µM [inhibitor, partial curve]",
CCN1CCN(C(=O)c2ccc(Cn3c(=O)[nH]c4cc(OC)c(OC)cc4c3=O)cc2)CC1,inactive,
CCCNC(=O)c1cc(C2CCCCN2C(=O)OC)on1 (stereo unspecified),inactive,
COc1cc2cc(CN(Cc3cccnc3)C(=O)Nc3ccccc3F)c(=O)[nH]c2cc1OC,"inconclusive: 18.4 µM [inhibitor, single point]",
Cc1nc2c(C(=O)NCCc3ccc(Cl)cc3)cnn2c(C)c1Cc1ccc(F)cc1,"inconclusive: 20.6 µM [inhibitor, single point]",
C[C@H](NC(=O)OC(C)(C)C)c1nnc(SCC(=O)c2ccc(Cl)cc2)o1,active: 20.6 µM,

Structure (SMILES),Potency,"activity change, negative = growth inhibition"
CCCc1ccc(OCc2ccc(C(=O)N3CCCC3)o2)cc1,active: 20.6 µM,
O=C1NC(=O)C(CCc2ccccc2)(c2ccccc2)N1 (stereo unspecified),inactive,
COc1ccc(N2C(N)=C(C#N)C(c3cc(CN4CCOCC4)cs3)C3=C2CCCC3=O)cc1 (stereo unspecified),"inconclusive: 23.1 µM [inhibitor, single point]",
Cc1cccc(NC(=O)CSCC(=O)N2CCN(c3cccc(C(F)(F)F)c3)CC2)c1,"inconclusive: 29.1 µM [inhibitor, single point]",
Cc1ccc(C(=O)NCc2ccccc2)cc1Br,inactive,
O=C(Nc1cc2c(cc1Cl)OCCCO2)c1ccc(F)cc1,inactive,
CCN(c1ccccc1)S(=O)(=O)c1ccc2c(c1)N(C(C)=O)CCS2,inactive,
O=[N+]([O-])c1ccc(O)c(/C=N/NC2=NS(=O)(=O)c3ccccc32)c1,active: 0.517 µM,
COc1ccc([C@H]2C[C@@H](O)[C@H](n3cc(COC(=O)c4ccccc4)nn3)CN2C(=O)C2CCCCC2)cc1,"inconclusive: 29.1 µM [inhibitor, single point]",
CCOC(=O)c1c(N)sc(C(=O)OCCOC)c1C,,inconclusive: -31% [inhibitor]
CCN(C(=O)COC(=O)c1ccccc1Nc1ccccc1)c1c(N)n(Cc2ccccc2)c(=O)[nH]c1=O,"inconclusive: 29.1 µM [inhibitor, single point]",
Cn1c(=O)c2cc(NC(=O)Nc3cccnc3)ccc2n1Cc1ccc(Cl)cc1,"inconclusive: 29.1 µM [inhibitor, single point]",
CCc1nnc(NC(=O)C2CCN(C(=O)NC3CCCCC3)CC2)s1,inactive,
COc1cc(OC)c2c(-c3ccccc3)cc(=O)oc2c1C(CC(=O)N1CCCC1)c1ccc2c(c1)OCO2 (stereo unspecified),active: 20.6 µM,
C[C@@H](CO)NC(=O)c1[nH]cnc1C(=O)Nc1cccc(Cl)c1,"inconclusive: 23.1 µM [inhibitor, single point]",
CC(Cc1ccsc1)NC(=O)CCc1nnc(CCc2ccccc2)o1 (stereo unspecified),inactive,
O=C(COC(=O)c1ccc(OC(F)(F)F)cc1)NCCN1C(=O)CSC1=O,inactive,
C=C(C)CSc1nnc2n(Cc3ccccc3)c(=O)c3c4c(sc3n12)CCC4,"inconclusive: 13 µM [inhibitor, partial curve]",
O=[N+]([O-])c1ccc(N2CCN(c3ccccc3F)CC2)c(S(=O)(=O)N2CCOCC2)c1,"inconclusive: 29.1 µM [inhibitor, single point]",
CCCSc1nc2sc3c(c2c(=O)n1-c1ccc(C)c(Cl)c1)CCN(C(C)=O)C3,active: 23.1 µM,
Cn1c(CNc2nc3ccccc3n2CCN2CCCCC2)nc2ccccc21,,inconclusive: -37.1% [inhibitor]
COc1ccccc1-c1c(C(F)(F)F)oc2cc(OS(C)(=O)=O)ccc2c1=O,"inconclusive: 29.1 µM [inhibitor, single point]",
Oc1ccc(C[C@H]2CNCCN2CCc2cc(C(F)(F)F)cc(C(F)(F)F)c2)cc1,"inconclusive: 25.9 µM [inhibitor, single point]",
